Reference: patent EP1141005B1 (Angiogenetics Sweden AB, dated 2007)

Biological target: T1, GAL4/HIF 1-826 (full length HIF-1α fused to the GAL4 DNA binding domain) (human, UniProt P04386 1-147; Q16665 1-826, [35S]methionine-labeled in the pull-down of paragraph 59 (in vitro translated))
T1 construct: also called GAL4-HIF-1α; pCMX-GAL4-HIF-1α
Experiment: pull-down of in vitro translated [35S]-labelled GAL4/HIF 1-826 with purified GST on anti-GST affinity gel

B1: GST alone (other)
chain: not shown
notes: Control; also called purified GST; empty GST expression vector
  binding result: no binding
